In the supplement of paper PMC11417369:
± gives the standard deviation of the averaged measurements. This is one part of the list.

System: PfAP2-G AP2 domain (GST-tagged)
Assay: gcPBM binding intensity (ln(normalized median fluorescence intensity)); higher = stronger DNA binding
Method in brief: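 An Agilent 4 × 180k array of primer-extended double-stranded 36-bp intergenic genomic probes, with negative controls, was incubated for 1 h with GST-tagged P. falciparum DNA-binding domains expressed in E. coli. Alexa488 anti-GST antibody detected bound protein, scanned at 488 nm. Binding intensity is the highest Masliner-normalised natural-log median intensity across replicate spots of either probe orientation.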

Row | Sequence | gcPBM binding intensity (ln)
1 | CACACGTATATATATACACACTAAAATACCCAGACA [CACACA_site6142] | 10.3 ± 0.17
2 | ATTTTTTCATATTCTACACACGTGAACAAATGTGTC [CACACA_site3007] | 10.2 ± 0.12
3 | GTATATAATTATATATGTACTAAATAAATATTTTTA [XGTACX_site6062] | 11 ± 0.73
4 | TATAAAAATAAATAAATAAATAAATAAATAAATAAA [TGCATGCA_negctrl_site310] | 9.41 ± 0.25
5 | ATGTAAGACAAAAAGGGTACATAATGCGTATGTATT [XGTACX_site4666] | 11.2 ± 0.69
6 | AAAAATTACCCATCCATACACACATATTTTTTTTAA [CACACA_site2190] | 10.2 ± 0.064
7 | TTTTCTAAAAAAAGTTGTACATCTTATTTATATTAT [XGTACX_site295] | 11.5 ± 1
8 | AAAAAATAAAAAAATAAAAAATAAAAAATAAAAAAT [TGCATGCA_negctrl_site90] | 9.46 ± 0.13
9 | CAAACAATTAAACAAACACACATATACAAGTATATA [CACACA_site8639] | 9.86 ± 0.11
10 | TATTATTCCAAGAAAAAAAAAAATAAAAAAAAAAAA [CACACA_negctrl_site1424] | 9.62 ± 0.13
11 | AAAGAACAAATAAAACATAAAATAATATATATAGAT [CACACA_negctrl_site1764] | 9.58 ± 0.23
12 | TATAAATCTATAAATGCACACAAGGGAAGAAAAACG [CACACA_site2965] | 10.4 ± 0.28
13 | ATTAAAATTTGTTAAAGTACTTAATAAAAATTTTTC [XGTACX_site1959] | 11 ± 0.71
14 | TGTATATCATAAGATGGTACACGTGTGTGCGTATGC [XGTACX_site2255] | 11.1 ± 0.67
15 | ATTCTTAAAAAAAAATGTACACATGAACAATATGTA [XGTACX_site362] | 11.5 ± 0.73
16 | AATGACTACATAATAGTGCAATATTAAAGAAAATTA | 10 ± 0.27
17 | AAATTATATAAAGGAACACACATTTTATTTTATTTT [CACACA_site1500] | 9.915 ± 0.078
18 | TATATTTTTATAATAACACACGATATATGTTTAGGA [CACACA_site1283] | 9.88 ± 0.13
19 | TATATATTATATATGTGTACTCACTAACAAAAATTA [XGTACX_site6285] | 11.5 ± 1.1
20 | AGGTGAATATTTTTTACACACATAAAAAAAATATAT [CACACA_site57] | 10.1 ± 0.092
21 | TTTAAGATTTTGTAATGTACATATATACATATATAT [XGTACX_site399] | 11 ± 0.66
22 | TATTTTTATAAGAGCATGCACTGTTTAAAATGGTAT | 10.1 ± 0.23

Row | Sequence | gcPBM binding intensity (ln)
23 | TTTTTTAAAATATGGACACACATATATATATATGTA [CACACA_site2784] | 11 ± 0.64
24 | AATCAAAATTCATTAACACACAATTTTAATATTCTT [CACACA_site5178] | 9.84 ± 0.085
25 | TTTATTTATTTATGTTGTACAAGTTTATACTGGAAT [XGTACX_site6479] | 11.4 ± 0.96
26 | TTTTAACAAAACAAAACAAAATAATATAAAGATAAC [TGCATGCA_negctrl_site154] | 10.02 ± 0.071
27 | ATGATATGGATAAATACACACAATAAAATAATGTCT [CACACA_site6786] | 10.02 ± 0.042
28 | CAGTATTCTTCTATATGTACTTATTTAAATATTCTT [XGTACX_site7555] | 11.3 ± 0.83
29 | TAAATAATAATAAATGTGCACAGGTATTAACAAAAA [GTGCAC_site9988] | 10.27 ± 0.085
30 | TTTTGATATAAAAAAAGTACATTAATAATATTAATT [XGTACX_site4248] | 11.4 ± 0.98
31 | TATGTATAAAAATATTGTACATATTATATATATATA [XGTACX_site2947] | 11 ± 0.67
32 | TTAACATATGACATTTTTTCACCCTTCCTTTATTTT [CACACA_negctrl_site1192] | 9.89 ± 0.042
33 | ATAAAATCATTCAATGGTACAGAAATACAAAATGTA [XGTACX_site6739] | 10.6 ± 0.36
34 | ATAATTTGATCAATTTTTCATTTTTCATTTTTTTAA [CACACA_negctrl_site1252] | 9.72 ± 0.21
35 | AATTAGCATTAAAAATGTACAAAAGAAAAAAATATA [XGTACX_site3816] | 10.8 ± 0.51
36 | GTCAAAAATAATATATGTACTTATAATAGATAAATG [XGTACX_site7755] | 11.3 ± 0.76
37 | TTTTTTTTTTTTTTTTTTTGATTCTTATAAAAATTT [GTGCAC_negctrl_site240] | 9.59 ± 0.42
38 | AGGTCACATTTGTCCTCACACATAGATAAATATATA [CACACA_site5460] | 10.9 ± 0.6
39 | AGAAAGAATGAAAAATGTACATATATGTAATAGCTA [XGTACX_site364] | 11 ± 0.61
40 | TAAAATTTAAAAAGGTGTACACTATAAATTAAAATA [XGTACX_site2081] | 11.7 ± 0.95
41 | ATACGTGGGCAAAAAGTGCATATAATCAAAAAAAAA [GTGCAC_site9961] | 10.6 ± 0.69
42 | ATATATATATTTGTATGTACATATCATATTGTGTGT [XGTACX_site1580] | 11.2 ± 0.73
43 | AAGATATTTGAATATACACACGATTTAAATTTAATA [CACACA_site3866] | 9.9 ± 0.014
44 | TGTTTTTAATTTCGCACACACCTTGTGGAAAAAAAA [CACACA_site4482] | 10.4 ± 0.47
